81 molecules from PubChem BioAssay (NCI) can be followed below.

“And” between values parts separate entries of the source, which are not always exact repeats. Equal entries are not always repeated.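 Where inhibition never reached the appropriate level, the endpoint shown equals the highest concentration tested. Otherwise, values were interpolated linearly from a five-concentration, 48-hour dose response in 96-well plates. GI50 = concentration required for 50% inhibition of growth. TGI marks complete inhibition of growth.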 The source made the active and inactive calls. No stated cut-off is given here; in the data, active means GI50 below about 0.43 µM; inactive means the rest. Peptide text beside a SMILES is read from it. * marks the point of attachment. Boc = CC(C)(C)OC(=O)*; OBn = c1ccc(CO*)cc1

For the experiment, the system named is NCI-H322M lung. Nature of the experiment: inhibition of tumour cell growth, NCI panel, 48 h.
`CC1=CC(C)(C)[C@H]2O[C@@]3(O)C[C@]4(C)[C@H]5C[C@@](C(C)C)(O[C@H]4c4ccoc4)O[C@H]4[C@]5(C3)O[C@@]1(O)[C@]24O` gave a TGI of over 100 µM.

In turn, `Cc1[nH]c(=O)[nH]c(=S)c1C(=O)NC1C2CCCCC2NC2CCCCC21` (configuration not stated) gave a TGI of 40.2 µM.

On to `COc1ccc2c(CCNC(C)=O)c(C(C)=O)[nH]c2c1`, for which the TGI is over 100 µM.

In turn, `O=c1c(-c2ccccc2)c2n(c3ccccc13)CCN2` had a TGI of over 100 µM.

As for `O=C([O-])c1cc(I)cc(I)c1[OH2+].O=C([O-])c1cc(I)cc(I)c1[OH2+].[Mn+2]`, the GI50 is 28.9 µM and the TGI was over 100 µM.

`Cc1ccc(-n2c(=O)c3nn4c(=O)n(-c5ccc(C)cc5)c(=O)c4nn3c2=O)cc1`: the TGI is over 100 µM.

On to `COc1cc2ccnc(C=O)c2cc1OC`, for which the GI50 is over 100 µM and the TGI was over 100 µM.

In turn, `CC(=O)Oc1c(-c2ccccc2)oc2ccccc12` had a TGI of 11.1 µM.

For `COc1cc2c(cc1OC)C1[C@@H](c3ccccc3)OCN1CC2` (some centres not stated), the TGI was over 100 µM.

As to `COC1/C=C\C=C(/C)C(=O)NC2=CC(=O)C(N)=C(CC(C)CC(OC)C(O)C(C)C=C(C)C1OC(N)=O)C2=O` (configuration not stated), the GI50 is 0.0173 µM.

As for `Cc1cc2c(s1)C(N)CC2=O` (configuration not stated), the TGI was over 100 µM.

`N#Cc1ccccc1NC(=O)/C(=N\Nc1ccc([N+](=O)[O-])cc1)C1C(=O)NC(=O)NC1=O` yielded a TGI of over 100 µM.

On to `CC(=O)O[C@H]1C(=O)[C@@]2(C)[C@H]([C@H](OC(=O)c3ccccc3)[C@]3(O)C[C@H](OC(=O)[C@H](O)[C@@H](NC(=O)c4ccccc4)c4ccccc4C)C(C)=C1C3(C)C)[C@]1(OC(C)=O)CO[C@@H]1C[C@@H]2O`, for which the TGI was found to be 24.6 µM.

For `O=C(COc1nc2ccccc2nc1-c1ccccc1)Nc1ccc(Cl)cc1`, the GI50 was 42 µM and the TGI was over 100 µM.

Molecule `CC1(CO)COC(C)(C)OC1` had a TGI of over 100 µM.

In the case of `Cc1cc2c(O)c(c1)COCc1cc(C)cc(c1O)COCc1cc(C)cc(c1O)COC2`, the TGI is over 100 µM.

Regarding `CS(=O)(=O)O[C@H]1C(=O)N(c2cc3c4ccccc4ccc3c3ccccc23)[C@@H]1c1ccccc1`, the GI50 is 0.825 µM and the TGI is over 100 µM.

`COc1cc(OC)c2c(c1)C(=O)C(CC1(C)OCCCO1)=CC2=O`: the TGI stood at 29.8 µM.

Turning to `O=c1cc(-c2cc(O)c(O)c(-c3c(O)cc(O)c4c(=O)cc(-c5ccc(O)c(O)c5)oc34)c2)oc2cc(O)cc(O)c12`, the result was inactive.

In turn, `Cc1ccc(O)c(-c2cc(-c3cccc(Br)c3)on2)c1` had a TGI of 63.4 µM.

As to `CC1CCC(=O)NCCCCC(=O)N1` (configuration not stated), the TGI is over 100 µM.

In the case of `CCCCCCCCCCCCCC(=O)OC1C(O)C(CO)OC(OC)C1NC(=O)N(CCCl)N=O` (configuration not stated), the TGI is over 100 µM.

`CCOC(=O)C12CCCC1(O)N(NC(N)=O)C(C)=C2C(=O)OC` (configuration not stated) returned a TGI of over 100 µM.

`O=C1C(Cl)=C(Cl)C(=O)C2=C1C1c3ccccc3C2c2ccccc21`: the TGI was over 100 µM.

As for `Cc1ccc(S(=O)(=O)NC(=O)NC(C(=O)O)C(C)C)cc1` (configuration not stated), the TGI is over 100 µM.

In turn, `CCCCCCCCCCS(=O)CC(CO)NC(=O)/C=C/c1c(C)[nH]c(=O)[nH]c1=O` (configuration not stated) displayed a TGI of 5.45 µM.

In the case of `NCCCOc1cc2ccccc2cc1C(=O)NCCOc1nc2ccccc2cc1C(=O)Nc1ccc(Cl)cc1O`, the GI50 was 1.57 µM and the TGI was 3.02 µM.

As for `CNC(=O)NCC1OC(n2cnc3c(NC(=O)Nc4ccccc4)ncnc32)C(O[Si](C)(C)C(C)(C)C)C1CC(=O)N(C)OC` (configuration not stated), the GI50 is over 100 µM and the TGI is over 100 µM.

Regarding `CCOc1ccc(N=Nc2ccc3oc(=O)c(/C(C)=N/NC(=O)CC(=O)Nc4cccc(OC)c4)cc3c2)cc1`, the TGI came out at 56.4 µM.

As to `CC(C)CC(NC(=O)OC(C)(C)C)C(=O)NC(CC(=O)OCc1ccccc1)C(N)=O` (stereo not drawn) (Boc-Leu-Asp(OBn)-NH2; configuration not given here), the TGI was over 100 µM.

`O=C(/C=C/NC(=O)OCc1ccccc1)OCc1ccccc1` had a TGI of over 100 µM.

Regarding `c1ccc2c(c1)SC1=C(SC(=C3SC4=C(S3)Sc3ccccc3S4)S1)S2`, the TGI is over 100 µM.

Molecule `Cc1ccc(O)c(C(c2ccc(C(c3cc(C)ccc3O)c3cc(C)ccc3O)cc2)c2cc(C)ccc2O)c1` yielded a TGI of 3.03 µM.

`CC(C)(C)OC(=O)NCCc1ccc(N)cc1` came in with a TGI of over 100 µM.

As to `COc1cc(-c2ccc(-c3ccc(C(=N)N)cc3)s2)cc(OC)c1OC`, the GI50 is 3.13 µM and the TGI was found to be 12.8 µM.

In turn, `O=[N+]([O-])c1ccc(C2=Nn3c(nnc3-c3ccccc3)SC2)o1` showed a TGI of over 100 µM.

As for `CCOC(=O)/C=C(/C(=O)OCC)n1cc(C)c(=O)n(/C(=C/C(=O)OCC)C(=O)OCC)c1=O`, the TGI worked out at 29.4 µM.

For the molecule `CCOC(=O)N1C/C(=C/c2ccc(Cl)cc2)C(=O)/C(=C/c2ccc(Cl)cc2)C1`, the GI50 is 18.7 µM and the TGI came out at 55.4 µM.

Turning to `O=C(CSc1nc2ccccc2c2ccccc12)c1ccccc1`, the TGI is over 100 µM.

`CC(C)OC(=O)[C@@H]1OC(C)(C)O[C@H]1C(=O)OC(C)C` showed a TGI of over 100 µM.

`CC1=C(O)C(=O)C(C2=C(O)C(=O)C(C)=C(O)C2=O)=C(O)C1=O` gave a TGI of over 100 µM.

The molecule `CC(C)(Cl)C(Br)CCC(C)(Br)C(Br)CBr` (configuration not stated) yielded a TGI of 53 µM.

`NCCCCCCCCCCn1c2c(c3ccccc3c1=O)C(=O)c1ccccc1-2`: the GI50 was 4.18 µM and the TGI is 16.1 µM.

For the molecule `CC(C)NCCCC(C)Nc1ccnc2ccc3nn(C)nc3c12` (configuration not stated), the TGI is over 100 µM.

`CN(C)CCNc1ccc2nnn3c4ccccc4c(=O)c1c23` had a TGI of 10.6 µM.

Consider `COc1ccc(/C=C/C(=O)c2cc3c(N)c(C(=O)Nc4cccc(Cl)c4C)sc3nc2C)cc1`, for which the GI50 is 0.302 µM and the TGI is over 50 µM.

Regarding `COc1cc(/C=C/c2cc(/C=C/c3ccc(O)c(OC)c3)n(-c3c(Cl)cccc3Cl)c(=O)n2)ccc1O`, the GI50 is 4.14 µM and the TGI was 16.4 µM.

Consider `Nc1nc(N)c(N=Nc2ccccc2)c(-c2ccccc2)n1`, for which the GI50 is 11.2 µM and the TGI is 59.3 µM.

Regarding `c1ccc2cc(C[n+]3ccn(CCCCCCCCCCCCn4cc[n+](Cc5ccc6ccccc6c5)c4)c3)ccc2c1`, the GI50 is 0.858 µM and the TGI stood at 3.9 µM.

Consider `CC12CP(=O)(c3ccccc3)CC1c1ccccc1C2c1ccccc1` (configuration not stated), for which the TGI was over 100 µM.

For the molecule `Nc1nonc1C(=Nc1ccc(F)c(Cl)c1)NO`, the GI50 is over 100 µM and the TGI was over 100 µM.

In turn, `O=C1C(Cl)=C(N2CCN(CCOCCO)CC2)C(=O)c2ncccc21` came in with a TGI of over 10 µM.

Turning to `CN(C)c1cc[n+](/C(NS(=O)(=O)c2cc(C(=O)Nc3ccc(Cl)cc3)c(Cl)cc2[S-])=C(\C#N)C(=O)c2ccccc2)cc1`, the GI50 was 33.7 µM and the TGI was 98.6 µM.

In turn, `Cc1cc(=O)oc2cc(OCc3nc4ccccc4c(=O)n3-c3ccccc3)ccc12` registered a TGI of over 100 µM.

In the case of `Cn1ccc(=O)c2c(O)c3ccccc3c(O)c21`, the GI50 was 38.7 µM and the TGI is over 100 µM.

Turning to `CC(=O)/C=C/c1ccc(OCc2ccc(C(C)(C)C)cc2)cc1`, the GI50 is over 1000 µM and the TGI was over 1000 µM.

Regarding `Cc1ccc(C(=O)O)cc1NC(=O)c1cc(/C=C/c2ccccc2)[nH]c(=S)n1`, the TGI was over 100 µM.

`C[C@@]1(C(=O)Nc2ccc(F)nc2)CCCN1c1nc(Nc2cc(C3CC3)[nH]n2)c2cccn2n1`: the GI50 was 0.98 µM and 5 µM; the TGI is > 5.33 µM and 39.5 µM.

In turn, `CN(CCCCCl)P(=O)(OCC1=CC(=O)c2ccccc2C1=O)OC[C@H]1O[C@@H](n2cc(F)c(=O)[nH]c2=O)C[C@@H]1O` (some centres not stated) displayed a TGI of 19.8 µM.

`CCCN=Cc1c(O)c(O)c(C(C)C)c2cc(C)c(-c3c(C)cc4c(C(C)C)c(O)c(O)c(C=NCCC)c4c3O)c(O)c12` returned a TGI of 21.4 µM.

`CCOC(=O)C(/C=N\C(=S)Nc1c(CC)cccc1C(C)(C)C)=C(/O)c1ccccc1` had a TGI of over 100 µM.

In the case of `COc1ccc(/C(=N/O)C(c2ccc(OC)cc2)C2C(=O)Oc3ccccc32)cc1` (configuration not stated), the TGI was over 100 µM.

Molecule `Cc1cc2nc(C#N)c(N3CCN(c4ccc([N+](=O)[O-])cc4)CC3)nc2cc1C` gave a TGI of over 100 µM.

For the molecule `COc1ccc(O)c(/C=N/NC(=S)N2CCCCC2)c1`, the TGI is over 100 µM.

As to `CCC(CC)c1nc(Nc2cccc(OC)c2)c2ccccc2n1`, the GI50 was 6 µM and the TGI worked out at 12.2 µM.

For `O=C(Nc1nc(-c2ccc(Cl)cc2)cs1)c1cc(-c2ccc(Br)cc2)nc2ccc(Cl)cc12`, the GI50 is 32.4 µM and the TGI is over 100 µM.

`O=[N+]([O-])c1ccc2c(c1)Sc1ccccc1N2`: the TGI was over 100 µM.

In the case of `CN(C)C1C(=O)C(C(=O)NCN2CCCC2)=C(O)C2(O)C(=O)C3=C(O)c4c(O)cccc4C(C)(O)C3CC12` (configuration not stated), the TGI was over 100 µM.

Molecule `CCOC(=O)c1csc(NC(=O)CN(C)C)n1` had a TGI of over 100 µM.

Turning to `CCC[CH2][Sn]1([CH2]CCC)[O]C(=O)c2cccc(C)c2[O]1`, the GI50 was 1.7 µM and the TGI worked out at 3.14 µM.

On to `Clc1ccc(OCc2nn3c(CCCCc4nnc5sc(COc6ccc(Cl)cc6Cl)nn45)nnc3s2)c(Cl)c1`, for which the GI50 is 20 µM and the TGI amounted to 72.3 µM.

`O=S1(=O)OCCOS(=O)(=O)C1(Br)Cc1ccccc1` yielded a TGI of over 100 µM.

Consider `CC1=NC(C)(C)[N+]([O-])=C1`, for which the TGI is over 10 µM.

On to `COc1cccc(/C=N/[N-]C(=O)c2ccncc2)c1[O-].[Ni+2].[OH3+]`, for which the GI50 is over 100 µM and the TGI is over 100 µM.

On to `COC(=O)/C=C/C1C2C3(CCC(C)C12C)OCCS3` (configuration not stated), for which the TGI was over 100 µM.

Consider `O=[N+]([O-])c1cc(Cl)c(Cl)cc1[N+](=O)[O-]`, for which the TGI was found to be 31.3 µM.

Molecule `C/C(=C\COc1cc(O)c2c(c1)C(=O)c1cc(C)cc(O)c1C2=O)CCC1OC1(C)C` (configuration not stated) displayed a TGI of over 100 µM.

In the case of `COc1cc2c3c(n(CCCNCCNCCN)c(=O)c2cc1OC)-c1cc2c(cc1C3=O)OCO2`, the GI50 was 2.56 µM and the TGI worked out at 14.2 µM.

With `Clc1cc(Cl)cc(-c2ccc(-c3ccc(/C=N/NC4=NCCN4)cc3)s2)c1`, the GI50 is 1.69 µM and the TGI is 3.12 µM.

`N#Cc1c(-c2ccccc2)cc(-c2ccccc2)n(CCCC(=O)NO)c1=O`: the GI50 is 2.47 µM and the TGI turned out to be 10.6 µM.

In turn, `CNc1ccccc1-c1nc2ccccc2c(=O)o1` gave a TGI of over 100 µM.
